# Screen size: about 310,000 compounds; about 2,200 (0.71%) showed an effect of 50% or more. Effects have a minus sign here. Some of the results follow.
# Molecular target: human ether-à-go-go-related gene (hERG) potassium channel (human, UniProt Q12809)
# Test: primary screen, population patch clamp on CHO cells stably expressing hERG
# human ether-à-go-go-related gene (hERG) potassium channel, sequence (Q12809 whole entry, looked up): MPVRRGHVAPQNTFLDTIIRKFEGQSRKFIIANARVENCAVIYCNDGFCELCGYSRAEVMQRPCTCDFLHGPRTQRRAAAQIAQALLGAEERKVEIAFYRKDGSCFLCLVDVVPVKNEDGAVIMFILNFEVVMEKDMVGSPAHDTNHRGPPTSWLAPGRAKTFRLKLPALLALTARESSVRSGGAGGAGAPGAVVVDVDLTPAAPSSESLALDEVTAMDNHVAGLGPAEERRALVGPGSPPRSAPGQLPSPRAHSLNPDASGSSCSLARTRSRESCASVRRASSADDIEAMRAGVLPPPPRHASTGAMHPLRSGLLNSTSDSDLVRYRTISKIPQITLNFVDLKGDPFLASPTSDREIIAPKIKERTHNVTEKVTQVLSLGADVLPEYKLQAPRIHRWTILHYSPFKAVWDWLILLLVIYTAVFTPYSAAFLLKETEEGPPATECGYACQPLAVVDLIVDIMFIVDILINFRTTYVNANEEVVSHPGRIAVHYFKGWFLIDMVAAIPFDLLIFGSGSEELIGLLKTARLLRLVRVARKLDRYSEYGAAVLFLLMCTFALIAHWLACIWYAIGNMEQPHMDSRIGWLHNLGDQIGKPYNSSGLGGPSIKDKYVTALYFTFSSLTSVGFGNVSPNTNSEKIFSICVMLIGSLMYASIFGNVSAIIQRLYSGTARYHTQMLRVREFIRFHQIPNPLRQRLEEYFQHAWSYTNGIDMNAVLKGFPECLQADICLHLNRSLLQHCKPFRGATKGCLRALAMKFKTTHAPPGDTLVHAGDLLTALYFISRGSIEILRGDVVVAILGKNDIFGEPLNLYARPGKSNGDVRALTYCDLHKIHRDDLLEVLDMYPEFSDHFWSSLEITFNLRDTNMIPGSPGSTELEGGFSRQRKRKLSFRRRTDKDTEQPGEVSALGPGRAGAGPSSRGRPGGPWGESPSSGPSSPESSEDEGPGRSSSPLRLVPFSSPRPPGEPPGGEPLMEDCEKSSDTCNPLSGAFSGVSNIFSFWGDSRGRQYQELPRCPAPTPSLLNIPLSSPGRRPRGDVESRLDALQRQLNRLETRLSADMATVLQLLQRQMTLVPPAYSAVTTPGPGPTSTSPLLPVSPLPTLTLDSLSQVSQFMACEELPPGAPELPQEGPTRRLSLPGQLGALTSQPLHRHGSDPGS
row,Structure (SMILES),"hERG current change (%, negative = inhibition) at 1uM"
1,O=C(NN1C(=O)C2C(C1=O)C1C=CC2C12CC2)c1ccccc1 (stereo not shown),-1.99%
2,COC(=O)c1c(Oc2nc(OC)cc(OC)n2)cccc1Oc1nc(OC)cc(OC)n1,8.82%
3,CC1CN(S(=O)(=O)Cc2ccccc2)CC(C)O1 (stereo not shown),-4.59%
4,COc1cccc(C2c3[nH]c4ccccc4c3CCN2C(=O)c2ccccc2F)c1OC (stereo not shown),17.9%
5,CCc1cccc(C)c1NC(=O)C1=C(C(=O)O)CCCC1,3.02%
6,O=C1N[C@@H](Cc2cnc[nH]2)C(=O)N2CCC[C@@H]12,15.9%
7,C=CCC(C=C)[N+]1(CC(=O)OC)CCCCC1.[Br-] (stereo not shown),20.4%
8,COc1ccc(NC(=O)Nc2nnc(-c3ccccc3SCc3ccccc3)s2)cc1,6.28%
9,CC(C)C(=O)N1CCN(c2ccccc2NC(=O)c2cccc3ccccc23)CC1,1.8%
10,COc1ccccc1NC(=S)NCCC(c1ccccc1)c1ccccc1,5.27%
11,CCN1C(=O)C(O)(CC(=O)c2c(C)coc2C)c2ccccc21 (stereo not shown),15.7%
12,Cc1ccc(NC(=O)CSc2nc3sc(C)cc3c(=O)n2C)cc1,2.64%
13,Cn1c(CCC(N)=O)nnc1SCC(=O)Nc1ccccc1C(=O)NC1CC1,-2.82%
14,CCNc1nc(SC(C)C(=O)OC)nc(N2CCOCC2)n1 (stereo not shown),6.64%
15,Cc1ccc(C(=O)O)cc1NS(=O)(=O)c1ccc2c(c1)oc(=O)n2C,5%
16,COc1ccc(-n2c(CN3CCOCC3)nc3ccc([N+](=O)[O-])cc3c2=O)c(OC)c1,8.48%
17,COc1ccc(S(=O)(=O)N2CCCC2CNC(=O)C(=O)Nc2cccc(F)c2)cc1 (stereo not shown),4.01%
18,O=C(Nc1cccc(O)c1)c1cccc(NC(=O)c2cccs2)c1,8.88%
19,Cc1ccc2[nH]cc(CCNC(=O)c3ccc4c(c3)OCO4)c2c1,15.4%
20,CC(C)N(Cc1nc(-c2ccc3c(c2)OCO3)no1)Cc1nccn1C,6.53%
21,Cc1nn(C(C)C(=O)NC2CC2)c(=O)c2nn(-c3ccccc3)c(C)c12 (stereo not shown),17.7%
22,CCOC(=O)C1=C(C)N=C2SCCC(=O)N2[C@@H]1/C=C/c1ccccc1,6.17%
23,Cc1ccc(NC(=O)CSc2nnc(C3CC3)n2CC2CCCO2)cc1C (stereo not shown),8.35%
24,O=C(Nc1ccccc1)OC1CC2CC1C1CCCC21 (stereo not shown),11.4%
25,COc1ccccc1N1CCN(C(=O)CSc2nc3ccccc3nc2N2CCC(C)CC2)CC1,15.1%

# — PMC4336329 (PLoS ONE, 2015)
